These results are taken from the supplement of paper PMC9513381.

Experiment [1] addresses SARS-CoV-2 Wuhan-Hu-1 spike pseudovirus. The experiment in a line: pseudovirus neutralization IC50; higher = weaker neutralization. The protocol: (§1)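 Single-round luciferase reporter pseudovirus mixed with antibody dilutions and put on 293T-ACE2 cells for 48 h; signal relative to no-antibody wells, four-parameter fit.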
Experiment [2] shares this target. The experiment in a line: pseudovirus neutralization IC90; higher = weaker neutralization. The protocol: as §1
Experiment [3] has as its target SARS-CoV-2 Delta (B.1.617.2) spike RBD. Description: ELISA binding EC50; higher = weaker binding; ELISA of recombinant human antibody on coated antigen, from 10 µg/ml in fourfold dilutions; four-parameter fit.
Experiment [4] has as its target SARS-CoV-2 Omicron BA.1 spike protein. The description is as above.
In experiment [5] the target is SARS-CoV-2 Wuhan-Hu-1 spike receptor-binding domain. The experiment is described as above.

Recombinant human monoclonal antibodies (heavy:light variable regions). ELISA EC50 on the named antigen, from 10 µg/ml down; IC50 / IC90 against spike pseudovirus on 293T-ACE2 cells, 48 h; lower = stronger. Calls: IC50 above 1,000 ng/ml = non-neutralizing; EC50 above 1,000 ng/ml = non-binder. The source prints 1000 for neutralization that was not reached; it is given as >1000 ng/ml. Only binders of the Wuhan-Hu-1 domain have neutralization values. Bounds are passed on as bounds.

B1: B2038 (protein)
chain 1: QVQLVQSGSEVKKPGASVKVSCKASGYTFTSYTIHWVRQAPGQGLEWMGVINPSGGSSTYAQRFHARVNMTRDMSTTTVYMDLNSLRSEDTAVYFCARVCSTVNCPPRATDGLDVWGQGTTVTVSS
chain 2: DIQMTQSPSSLSASVGDRVTITCRASQSINFFLNWYQQKPGKAPKLLIYAASSLDRGVPSRFGGSGSGTDFTLTINSLQPEDFATYYCQQSYTPSITFGQGTRLEIK
In the case of B1, the “pseudovirus neutralization IC50” value in experiment [1] came out at 0.00209 µg/mL. For the same molecule, the “pseudovirus neutralization IC90” value in experiment [2] was 0.0193 µg/mL. For the same molecule, the “ELISA binding EC50” value in experiment [3] worked out at 0.0211 µg/mL; in experiment [4], 0.00246 µg/mL; in experiment [5], 0.00157 µg/mL.

B2: B2034 (protein)
chain 1: QVQLVQSGPEVKKPGSSVKVSCKAPGGTASTYAIIWVRQAPGQGLEWMGGIIPLFGATRYTQRFQGRVTITADKSTTTAYMELSSLTSEDTAVYYCARVKRLWHESVARYYFDYWGQGTLVTVSS
chain 2: DIQMTQSPSSLSASVGDRVTITCQASQDISNYLNWYQQKPGKAPKLLIYDASNVETGVPSRFSGSGSGTDFTFTISSLQPEDIATYYCQQFDNLPVVTFGGGTKVEIK
For the molecule B2, the “pseudovirus neutralization IC50” value in experiment [1] stood at 0.00439 µg/mL. The “pseudovirus neutralization IC90” value in experiment [2] was 0.0316 µg/mL. Further, the “ELISA binding EC50” value is more than 1 µg/mL in experiment [3], 0.00342 µg/mL in experiment [4] and 0.00245 µg/mL in experiment [5].

B3: B2039 (protein)
chain 1: EVQLVESGGGLIQPGGSLRLSCAASGFTVSSNYMSWVRQAPGKGLEWVSLIYPGGSTFYADSMKGRFTISRDNSKNTLYLQMNSLRAEDTAVYYCARVVGPTGTDAFDVWGQGTMVTVSS
chain 2: DIQMTQSPSSLSASVGDRVTITCQASQDISNSLNWYQQKPGKAPKLLIYDASNLQTGVPSRFSGSGSGTDFTFTISSLQPEDIATYYCQQFDNLPSFTFGPGTKVDIK
For the molecule B3, the “pseudovirus neutralization IC50” value in experiment [1] was found to be 0.00998 µg/mL. Besides, in experiment [2], the “pseudovirus neutralization IC90” value came out at 0.131 µg/mL. Also, the figures for the “ELISA binding EC50” value in experiment [3], in experiment [4] and in experiment [5] were 0.0152 µg/mL, 0.00985 µg/mL and 0.00126 µg/mL, respectively.

B4: B2037 (protein)
chain 1: QVQLVQSGDEVKKPGSSVKVSCKTSGGTLTSYAISWVRQAPGQGLEWMGGIIPISGTPSYGEKFQGRVTITADKSTSTASMELTSLRYEDTAMYYCARETPAAVRFSERHPQGLGLYAMDVWGQGTTVTVSS
chain 2: SYELTQPPSVSVAPGQTARISCGGDNIGSKNVHWYQQKPGQAPILVVFDDSDRPSGIPERFSGSNSGNTATLTISRVEAGDEADYSCQVWDSISARPSWVFGGGTKLTVL
With B4, in experiment [1], the “pseudovirus neutralization IC50” value was more than 1 µg/mL. For the same molecule, in experiment [2], the “pseudovirus neutralization IC90” value was more than 1 µg/mL. Further, the figures for the “ELISA binding EC50” value in experiment [3], in experiment [4] and in experiment [5] were 0.0185 µg/mL, 0.0389 µg/mL and 0.00244 µg/mL, respectively.

B5: B2009 (protein)
chain 1: QVQLVQSGAEVKKPGASVKVSCKASGYAFTNYAISWVRQATGQGLEWMGWMSPQDGDTGYAQKFQGRVTMTSDTSISTAYMELSGLTSEDTALYYCARGPRTNSDYFDFWGQGTLVTVSS
chain 2: DIQMTQSPSPLSASVGDRVTITCRASQTISTWLAWYQQKPGQAPKLLIYDASSLESGVPSRFSGSGSGTEFTLTISSLQPDDFATYYCQQYNNYPFTFGPGTKVDIK
Consider B5, for which the “pseudovirus neutralization IC50” value in experiment [1] is 0.528 µg/mL. Moreover, the “pseudovirus neutralization IC90” value in experiment [2] is more than 1 µg/mL. In addition, the “ELISA binding EC50” value in experiment [3] was 0.0163 µg/mL; in experiment [4] it was 0.0109 µg/mL; in experiment [5] it was 0.00263 µg/mL.

B6: B2035 (protein)
chain 1: QVQLVQSGAEVKKPGSSVKVSCKASGGALSTYGISWVRQAPGKGLEWVGGIVPVLKRTNYAQKFQGRVTITADESTNTAYMELRSLRSEDTALYYCARCLNMGFCSGGSCFDYCDYWGQGTLVTVSS
chain 2: QSVLTQPASVSGSPGQSITISCTGTSSDVGGYNYVSWYQQHPGKAPKLIIFDVTDRPSGVSNRFSGSKSGNTASLTISGLQAEDEADYYCSSYTSSYTLVVFGGGTHLTVL
For B6, the “pseudovirus neutralization IC50” value in experiment [1] was 0.0172 µg/mL. Besides, in experiment [2], the “pseudovirus neutralization IC90” value was 0.361 µg/mL. In addition, the “ELISA binding EC50” value in experiment [3] was determined as 0.0427 µg/mL; in experiment [4], 0.00472 µg/mL; in experiment [5], 0.00252 µg/mL.

B7: B2032 (protein)
chain 1: QLQLQESGPGLAKPSETLSLTCSVSGGSISSVNYYWGWIRQPPGKGLEWIVSVYYGGNTHYNPSLKSRVTISVDTSKNQMSLKLNSVTAADTAVYYCARHEYYYDRRGSPRLGWFDPWGQGTLVTVSS
chain 2: IRMTQSPSSLSASVGDRVTITCQASQDINTYLNWYQQKPGKAPKLLIYDVFNLETGVPSRFSGSGSGTEFTLTISSLQPEDIGTYYCQQYNNFALTFGGGTKVEIK
For B7, in experiment [1], the “pseudovirus neutralization IC50” value is 0.0316 µg/mL. Besides, the “pseudovirus neutralization IC90” value in experiment [2] came to 0.198 µg/mL. The results for the “ELISA binding EC50” value in experiment [3], in experiment [4] and in experiment [5] were 0.00841 µg/mL, 0.0295 µg/mL and 0.00278 µg/mL, respectively.

B8: B2143 (protein)
chain 1: QVQLQESGPGLVKPSETLSLDCTVSGASINYYYWTWIRQPPGKGLEWIGYVFYSGSTNYNPSLKSRVTISVDSSANQFSLRLSSVTAADTAVYYCARGGMEYDGLLTGYYLDSWGQGTLVTVSS
chain 2: IRMTQSPSSLSASVGDRVTITCRASQDISNFLNWYQQKPGKAPKLLIYRASSLETGVPSRFSGSGSGTHFTFTISSLQPEDIATYYCQQYDNVLLTFGGGTKVDIK
Turning to B8, the “pseudovirus neutralization IC50” value in experiment [1] is more than 1 µg/mL. The “pseudovirus neutralization IC90” value in experiment [2] was more than 1 µg/mL. The “ELISA binding EC50” value in experiment [3] stood at 0.0137 µg/mL; in experiment [4] it was 0.00679 µg/mL; in experiment [5], 0.00325 µg/mL.

B9: B2031 (protein)
chain 1: EVQLVESGGGLVQPGRSLRLSCAASGFIFEDYAMHWVRQAPGKGLEWVSGVSYNSGTIGYADSVKGRFIISRDNAKNSLYLQMRSLRPEDTAFYYCAKAKEPKDAYSDGDEYCFDSWGQGILVTVSS
chain 2: QSVLTQPPSASGTPGQRVTVSCSGSSSNIGSNYVSWYQQLPGTAPKLLVYRSNQRPSGVPDRFSGSKSGTSASLAISGLRSEDEADYYCAAWDDSLSGVLFGGGTKLTVL
Take B9: the “pseudovirus neutralization IC50” value in experiment [1] is 0.0176 µg/mL. Besides, in experiment [2], the “pseudovirus neutralization IC90” value came out at 0.12 µg/mL. The “ELISA binding EC50” value in experiment [3] came to 0.0512 µg/mL; in experiment [4], 0.00786 µg/mL; in experiment [5], 0.00258 µg/mL.

B10: B2041 (protein)
chain 1: EVQLVESGGNLIQPGGSLRLSCAASGFIVSNSYMSWVRQAPGKGLEWVSVIYSGDSTFYADSVKGRFTISRDNSRNTMYLQMNSLRAEDTAVYYCARLGGIQLHDGGFDYWGQGTLVTVSS
chain 2: QSALTQPPSASGSPGQSVTISCTGTSSDVGGYNYVSWYQQHPGKAPKFLIYEVSKRPSGVPGRFSGSKSGNTASLTVSGLQAEDEAYYHCSSYAGSHLWVFGGGTKLTVL
As for B10, in experiment [1], the “pseudovirus neutralization IC50” value is 0.00453 µg/mL. Moreover, in experiment [2], the “pseudovirus neutralization IC90” value stood at 0.0219 µg/mL. Further, the “ELISA binding EC50” value in experiment [3] was more than 1 µg/mL; in experiment [4], more than 1 µg/mL; in experiment [5], 0.00196 µg/mL.

B11: B2036 (protein)
chain 1: QVQLVQSGAEVKKPGASVKVSCKVSGYTFINYGISWVRQAPGQGLEWMGWISAYDGYTNYAQKFQGRVTMTTDTSTSTAYMDLRSLRSDDTAIYYCARDPGATDYYESTAFELDYWGQGSLVTVSS
chain 2: SYELTQPSSVSVSPGQTARITCSGDLLAKKYARWFQQKPGQAPVLVIYRDKERPSEIPERFSGSSSGTTVTLTISGAQVDDEADYYCYCAAAENNKVFGGGTKLTVL
For the molecule B11, the “pseudovirus neutralization IC50” value in experiment [1] is more than 1 µg/mL. Further, in experiment [2], the “pseudovirus neutralization IC90” value is more than 1 µg/mL. The “ELISA binding EC50” value in experiment [3] was 0.0269 µg/mL; in experiment [4], 0.0427 µg/mL; in experiment [5] it was 0.00636 µg/mL.

B12: B2144 (protein)
chain 1: QVQLQESGPGLVKPSQTMSLTCTVSGVDITSGGHFWSWIRHHPGKGLEWIGHIFYSGSTNYNPSLKSRVMMSVDTSKNQFSLKLTSVTAGDTAVYYCVRGGSGSYYMADYWGQGTLVTVSS
chain 2: IRMTQSPSSLSASVGDRVTITCQASQDISNHLNWYQQRPGKAPKLLIYDASNLEAGVPSRFSGSGSGTDFTFTIQSLQPEDIATYYCQSYDNLPRPFFGQGTRLEIK
On to B12, for which the “pseudovirus neutralization IC50” value in experiment [1] was more than 1 µg/mL. Further, the “pseudovirus neutralization IC90” value in experiment [2] is more than 1 µg/mL. Moreover, the “ELISA binding EC50” value in experiment [3] stood at 0.0454 µg/mL; in experiment [4], 0.0083 µg/mL; in experiment [5], 0.00118 µg/mL.

B13: B2033 (protein)
chain 1: VQLVESGGGVVQPGRSLRLSCAASGFTFSIYGMHWVRQAPGEGLEWVALISYDESNKYYADSVKGRFTISRDNSKNTLYLQMDSLRAEDTAVYYCVKQLGTYCSGGSCYSGFFDYWGQGTLVTVSS
chain 2: IRMTQSPSSLSASVGGRVTITCQASQDITNYLNWYQQKPGKAPKLLIYDASNLEAGVPSRFSGSGSGTHFTFTINSLQPEDIATYYCQQYDNLPFTFGPGTKVDIK
As for B13, the “pseudovirus neutralization IC50” value in experiment [1] is more than 1 µg/mL. In addition, the “pseudovirus neutralization IC90” value in experiment [2] was more than 1 µg/mL. In addition, the entries for the “ELISA binding EC50” value in experiment [3], in experiment [4] and in experiment [5] were 0.0284 µg/mL, 0.00836 µg/mL and 0.00354 µg/mL, respectively.

B14: B2141 (protein)
chain 1: QVQLVQSGAEVKKPGSSVRVSCKASGGTLINYAVSWVRQAPGQGLEFMGGLIPILGTSYYAQKFQGRVTIIADESRRTVYMELSNLKSEDTAVYYCATGVRNCPGGGCYSAYFQHWGQGTLVTVSS
chain 2: EIVLTQSPGTLSLSPGERATLSCRASQSVSRSHLAWYQQKPGQAPRLLIFGASSRATGIPDRFNGSGSGTDFTLTIRSLDREDFAVYYCHHYGDSTGTFGQGTKLEIK
Turning to B14, the “pseudovirus neutralization IC50” value in experiment [1] amounted to 0.00569 µg/mL. The “pseudovirus neutralization IC90” value in experiment [2] stood at 0.0692 µg/mL. Further, the “ELISA binding EC50” value came to 0.0147 µg/mL in experiment [3], 0.0559 µg/mL in experiment [4] and 0.00245 µg/mL in experiment [5].
